{"source": "PubChem BioAssay AID624202", "about": "(National Center for Advancing Translational Sciences (NCATS), 2012)", "note": "The campaign covered roughly 380,000 compounds. About 4,000 (1.1%) were called active. Inconclusive results, whose numbers are uncertain, are shown with a selection of clear calls. The call rests on the fitted dose curve; in most records, active means well fitted activation curve with a large enough effect; inconclusive means small, poorly fitted or top-dose-only effect; inactive means no such curve, though single readings can be large or run the other way. A potency beside an inconclusive call is a rough fit, not a confirmed value. Potency means the concentration at half of the fitted maximal effect; tags describe the fitted curve by direction and shape.", "data": [{"experiment": "qHTS Assay to Identify Small Molecule Activators of BRCA1 Expression; further: nearly all actives have a fitted effect of over 80% in size", "conditions": "MCF7-BRCA1-FFLuc reporter, luminescence, 48 h; activation: at 46.1 µM (top of the series), scaled: vehicle 0%, 10 µM genistein 100% unless noted", "outline": "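First, MCF7-BRCA1-FFLuc cells (2000/well) attach for 2 h; next, compounds are pin-added and incubated 48 h at 37 °C; finally, luciferase reagent is added and luminescence read after 15 min.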", "values": [{"molecule": "Cn1c(=O)cc(OCC(=O)N2CCN(c3ccc(F)cc3)CC2)c2ccccc21", "activation": "inactive: 5.29%"}, {"molecule": "CCc1ccc(NC(=O)N(Cc2cn(CC)c3ccccc23)C2CCCCC2)cc1", "activation": "inactive: -6.72%"}, {"molecule": "Cn1ccnc1SCC(=O)Nc1nc2ccccc2s1", "Potency": "inconclusive: 10 µM [activator, partial curve, poor fit]"}, {"molecule": "O=C(C1CCC(CNc2nc(=S)[nH]c3ccccc23)CC1)N1CCN(c2ccc(F)cc2)CC1", "note": "(stereo not drawn)", "activation": "inactive: -50.4%"}, {"molecule": "Cc1cc(OCC(=O)N2CCCC2)ccc1Cl", "Potency": "inconclusive: 10 µM [activator, partial curve, poor fit]"}, {"molecule": "Cc1cccc(-n2c(C)nnc2SCC(=O)NC(C)c2ccco2)c1", "note": "(stereo not drawn)", "activation": "inactive: 27.5%"}, {"molecule": "CNc1ncnc(Sc2nc(N)nc3nc[nH]c23)c1[N+](=O)[O-]", "activation": "inactive: -92%"}, {"molecule": "O=C(Nc1ccc(N2CCOCC2)c(Cl)c1)c1ccc(Br)o1", "Potency": "inconclusive: 2.51 µM [activator, full curve, poor fit]"}, {"molecule": "COc1ccc(-c2cn3c(n2)CCC3)cc1", "Potency": "inconclusive: 2.82 µM [activator, full curve, poor fit]"}, {"molecule": "Cc1nn(-c2ccccc2)c(Cl)c1/C=N/NC(=O)OC(C)(C)C", "Potency": "inconclusive: 7.94 µM [activator, partial curve, poor fit]"}, {"molecule": "CC1CCCN(c2ccc(C(=O)NCc3ccccc3)cn2)C1", "note": "(stereo not drawn)", "Potency": "active: 6.31 µM"}, {"molecule": "CC(=C/c1ccccc1)/C=N/NC(=O)c1cccs1", "Potency": "inconclusive: 1.12 µM [activator, full curve, poor fit]"}, {"molecule": "Cc1occc1C(=O)Nc1ccc2c(c1)OCCO2", "Potency": "inconclusive: 2.82 µM [activator, partial curve, poor fit]"}, {"molecule": "CN(C)c1ccc(/C=N/NC(=O)c2ccn(C)n2)cc1", "Potency": "inconclusive: 6.31 µM [activator, full curve, poor fit]"}, {"molecule": "CN1CCN(c2ccc(NC(=O)c3ccc(Cl)cc3Cl)cc2)CC1", "Potency": "inconclusive: 11.2 µM [activator, partial curve, poor fit]"}, {"molecule": "O=C(N=C1N=C2C=CC=CN2Cc2ccccc21)c1ccc(S(=O)(=O)N2CCOCC2)cc1", "Potency": "active: 10 µM"}, {"molecule": "CCCCC1(C)NC(=S)N2N1C(=S)NC2(C)CCCC", "note": "(stereo not drawn)", "activation": "inactive: -6.12%"}, {"molecule": "C/C(=N\\NC(=O)c1ccc2c(c1)OCO2)c1ccc(O)cc1", "Potency": "inconclusive: 31.6 µM [activator, single point]"}, {"molecule": "CCOc1ccc(C(C)NC(=S)NCc2ccc(Cl)cc2)cc1", "note": "(stereo not drawn)", "activation": "inactive: -29.9%"}, {"molecule": "CCOC(=O)c1cc(-c2ccccc2)nn1CCC#N", "Potency": "inconclusive: 35.5 µM [activator, single point]"}, {"molecule": "NC(=O)Cc1ccc2sc(-c3ccccc3)nc2c1", "Potency": "inconclusive: 1.26 µM [activator, partial curve, poor fit]"}, {"molecule": "COc1cccc(-c2nc(CS(=O)(=O)CC(=O)NCCc3ccccc3)c(C)o2)c1", "activation": "inactive: -24.2%"}, {"molecule": "CCOC(=O)c1cc(-c2ccccc2)nn1Cc1ccccc1", "Potency": "inconclusive: 15.8 µM [activator, single point]"}, {"molecule": "COc1ccc(Oc2ccc(-c3ccn[nH]3)cc2)cc1", "Potency": "inconclusive: 7.94 µM [activator, partial curve, poor fit]"}, {"molecule": "COC(=O)Cc1ccc(OC2(C)CCN(Cc3csc4ccccc34)C2)cc1", "note": "(stereo not drawn)", "activation": "inactive: 5.63%"}, {"molecule": "O=C(NNC(=O)c1cccs1)c1ccc(Br)cc1", "Potency": "active: 12.6 µM"}, {"molecule": "Cc1nc(C)c(-c2ccc(SCc3ccccc3F)nn2)s1", "Potency": "inconclusive: 12.6 µM [activator, partial curve, poor fit]"}, {"molecule": "CCC(=O)N(CC)Cc1cc(=O)[nH]c2ccccc12", "activation": "inactive: -14.7%"}, {"molecule": "O=C(O)c1cc(N/N=C/c2ccc(N3CCOCC3)s2)ccc1Cl", "Potency": "inconclusive: 10 µM [activator, partial curve, poor fit]"}, {"molecule": "CC(C)COC(=O)Nc1nnc(Cc2ccccc2)s1", "Potency": "inconclusive: 17.8 µM [activator, partial curve, poor fit]"}, {"molecule": "C/C=C(/C)C(=O)OC1CC(C)(C)C[C@H]2C3=CC[C@@H]4[C@@]5(C)CCC(O[C@@H]6O[C@@H](C(=O)O)[C@@H](O)C(O[C@@H]7OC[C@H](O)[C@@H](O)[C@@H]7O[C@@H]7OC(CO)C(O)[C@@H](O)[C@@H]7O)C6O[C@@H]6OC(CO)C(O)C(O)C6O)[C@@](C)(CO)[C@@H]5CC[C@]4(C)[C@]3(C)CC(O)[C@@]12CO", "note": "(stereo partly drawn)", "activation": "inactive: -21%"}, {"molecule": "c1ccc(CSc2ccc(-c3cccs3)nn2)nc1", "Potency": "active: 7.94 µM"}, {"molecule": "COc1ccc(-c2coc3cc(OC(C)=O)ccc3c2=S)cc1", "Potency": "inconclusive: 2.24 µM [activator, full curve, poor fit]"}, {"molecule": "COc1cc(-c2nc3ccccn3c2/N=C/c2ccccc2)ccc1O", "Potency": "inconclusive: 35.5 µM [activator, single point]"}, {"molecule": "OC[C@H]1O[C@@H](c2nc(-c3ccc(Br)cc3)no2)C[C@@H]1O", "Potency": "active: 7.94 µM"}, {"molecule": "COc1ccccc1Nc1nc2ccccc2n1C", "Potency": "active: 4.47 µM"}, {"molecule": "NC(=O)C1CCN(C(=O)OCc2ccccc2)CC1", "Potency": "inconclusive: 2.82 µM [activator, full curve, poor fit]"}, {"molecule": "O=C(c1ccc2c3n(nc2c1)-c1ccccc1CO3)N1CCOCC1", "Potency": "inconclusive: 3.55 µM [activator, partial curve, poor fit]"}, {"molecule": "O=C(Nc1ccc2c(c1)OCO2)Nc1ccccc1F", "Potency": "inconclusive: 1.41 µM [activator, full curve, poor fit]"}, {"molecule": "Cc1cccc(CSc2ncc(Cl)c(C(=O)Nc3sc4c(c3C#N)CCCC4)n2)c1", "activation": "inactive: 13.2%"}, {"molecule": "CC(C)(C)c1ccc(C(=O)c2cn[nH]c2-c2ccccc2O)cc1", "Potency": "inconclusive: 11.2 µM [activator, partial curve, poor fit]"}, {"molecule": "CC(C)Cc1nnc(NC(=O)Nc2ccccc2)s1", "Potency": "inconclusive: 2.51 µM [activator, partial curve, poor fit]"}, {"molecule": "O=[N+]([O-])c1ccccc1N/N=C\\c1ccccc1F", "Potency": "inconclusive: 17.8 µM [activator, single point]"}, {"molecule": "Cc1ccc(C(=O)Nc2cccc(C(=O)O)c2)cc1", "activation": "inconclusive: -97.2% [activator]"}, {"molecule": "Cc1cc(C(=O)CSc2ncccn2)c(C)n1-c1cccc(F)c1", "Potency": "inconclusive: 2.24 µM [activator, full curve, poor fit]"}, {"molecule": "COC(=O)C(C)NC(=O)c1ccc(C(C)(C)C)cc1", "note": "(stereo not drawn)", "Potency": "inconclusive: 11.2 µM [activator, partial curve, poor fit]"}, {"molecule": "O=C(COc1ccc(F)cc1)Nc1nccs1", "Potency": "inconclusive: 2.82 µM [activator, full curve, poor fit]"}, {"molecule": "COc1ccc(-c2cc3ccccc3oc2=O)cc1", "Potency": "inconclusive: 1.58 µM [activator, partial curve, poor fit]"}, {"molecule": "COc1ccc(Cl)cc1NC(=O)Nc1ccc(C(=O)N2CCCC2)cc1", "Potency": "inconclusive: 14.1 µM [activator, partial curve, poor fit]"}, {"molecule": "CCCCn1c(N)c(N(CC(C)C)C(=O)c2cc(-c3ccco3)nc3ccccc23)c(=O)[nH]c1=O", "activation": "inactive: -0.152%"}, {"molecule": "Cc1cc(N(C)C)ccc1N=Nc1ccc2ncccc2c1", "Potency": "inconclusive: 1.58 µM [activator, partial curve, poor fit]"}, {"molecule": "O=C(NCC1CCCO1)c1ccc(COc2ccccc2)cc1", "note": "(stereo not drawn)", "Potency": "active: 11.2 µM"}, {"molecule": "Cc1cc(C(=O)Nc2ccc3c(c2)OCCO3)ccc1[N+](=O)[O-]", "Potency": "inconclusive: 8.91 µM [activator, partial curve, poor fit]"}, {"molecule": "O=C(Nc1ccc2c(c1)OCO2)N1CCN(c2ccc(F)cc2)CC1", "Potency": "inconclusive: 10 µM [activator, partial curve, poor fit]"}, {"molecule": "CCC(=O)NC(=Nc1nc2ccccc2s1)NC(=O)CC", "Potency": "inconclusive: 0.891 µM [activator, full curve, poor fit]"}, {"molecule": "O=C1CSC(=S)N1N=Cc1ccc(OCc2ccccc2)cc1", "Potency": "inconclusive: 11.2 µM [activator, partial curve, poor fit]"}, {"molecule": "CCCCCC(=O)N[C@@H](c1ccccc1)[C@@H](O)C(=O)O[C@H]1C[C@@]2(O)[C@@H](OC(=O)c3ccccc3)C3[C@](C)(C(=O)[C@H](OC(C)=O)C(=C1C)C2(C)C)[C@@H](O)C[C@H]1OC[C@@]31OC(C)=O", "note": "(stereo partly drawn)", "activation": "inconclusive: -68.3% [activator]"}, {"molecule": "CCOC(=O)c1ccc(COc2ccc(C(C)C)cc2)o1", "Potency": "inconclusive: 3.16 µM [activator, partial curve, poor fit]"}, {"molecule": "CC(=O)c1sc(Nc2ccc(Oc3ccccc3)cc2)nc1C", "Potency": "inconclusive: 2.51 µM [activator, full curve, poor fit]"}, {"molecule": "CC(C)c1ccc(NCCC(=O)c2ccc(Br)cc2)cc1", "activation": "inactive: 18.1%"}, {"molecule": "CCOC(=O)C1=C(C)Nc2ccccc2N=C1NC(=O)c1oc2ccccc2c1COC", "activation": "inactive: -44.6%"}, {"molecule": "Nc1ccccc1SCc1cn2ccccc2n1", "Potency": "inconclusive: 1.58 µM [activator, partial curve, poor fit]"}, {"molecule": "COc1ccc(O)c(-c2nc(N)nc(N)n2)c1", "Potency": "inconclusive: 10 µM [activator, partial curve, poor fit]"}, {"molecule": "COc1ccc(-c2cc(-c3ccc(OC)c(OC)c3)n[nH]2)c(O)c1", "Potency": "inconclusive: 1.58 µM [activator, partial curve, poor fit]"}, {"molecule": "COc1cccc(C(=O)Nc2cc([N+](=O)[O-])ccc2N2CCN(C)CC2)c1", "activation": "inactive: -9.36%"}, {"molecule": "CCCCc1nnc(NC(=O)C2=COCCO2)s1", "Potency": "inconclusive: 2 µM [activator, full curve, poor fit]"}, {"molecule": "Cc1cc(C)c(C)c(S(=O)(=O)N2CCSCC2)c1C", "activation": "inactive: -4.41%"}, {"molecule": "CCOC(=O)c1c(C)nn(-c2ccc(NC(=O)c3c(C)noc3C)cc2)c1C", "activation": "inconclusive: -53% [activator]"}]}]}
